Whole data set: some 33,000 sequences, median “E-score (-0.5 to 0.5)” near -0.056, cut for the highest 2% near 0.38. This is one part of the list.
Molecular target: Stb4 (UniProt P50104)
Experiment: PBM E-score (8-mer binding enrichment) (E-score (-0.5 to 0.5)); higher = stronger / more preferred TF binding; most listed sequences are background and not binding sites
Settings: protein concentration: 200 nM; construct: GST-DNA-binding domain
Method in brief: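 Yeast transcription factors, full-length or as DNA-binding domains, were expressed with a GST tag using PURExpress in vitro transcription/translation. At about 100-200 nM they were applied to universal all-10-mer Agilent arrays, double-stranded by primer extension on fresh or once-stripped slides. Fluorescent anti-GST detected bound protein, and masliner normalised the scans. E-scores for ungapped eight-base words, pooled with reverse complements, came from the Universal PBM Analysis Suite.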

Sequence	PBM E-score
ACAAAAGT	-0.116
AAGGGACG	-0.277
CGAGTAGA	-0.0104
ACAAAATC	0.0505
ACTTGATG	-0.143
CCTTAAGG	-0.0347
CGCATACG	0.0121
ATCAGTCC	-0.114
GGGTTGAA	0.0353
ACCTGCGT	0.0026
CGCTAGGA	-0.136
GATGGGGA	0.0613
GAAGTAGC	0.0639
AACCACAT	-0.111
GTGGCCAA	-0.203
GGCCTTTA	-0.156
TAGAGTAA	-0.182
GTTGGCAA	-0.109
AGATCAAG	-0.095
AAGGTTCG	0.11
GCCTAACC	-0.0958
TATGTGAA	-0.257
CAAAGTCC	-0.128
GCACATAA	-0.234
CCCCTTCG	0.0658

Sequence	PBM E-score
CAGCGCCG	0.163
CAGCAGAC	-0.196
CGGAGAAA	0.298
AACCTGCC	0.0449
CCAGGTAC	-0.147
ACGTATCA	-0.234
CCGTGTCC	0.188
AACTAATA	0.0302
CCAGGTAA	-0.164
GTTCTGGA	-0.212
AAGAGTGC	-0.155
ACAAGTAT	-0.167
AGTGGTAT	-0.209
AATCGCCA	-0.242
TCCCGAAA	0.432
TCAAGGAA	-0.186
AGACTTAC	-0.171
ATGCTCCG	0.328
ACCACCCA	0.0956
AATTTGGT	0.113
ACAGGTAA	-0.167
AATGGATG	-0.173
AATGTTTC	0.131
ACACAACA	-0.174
ATATCTCA	0.0308

Sequence	PBM E-score
GAGGCTGA	-0.153
GGCGAGTA	0.0183
GTGACTAA	-0.0958
GCCTAAGA	-0.182
GAGTCCGA	0.214
ACCCACGA	-0.013
TACGAGTA	0.0249
TCTCCTCA	-0.126
AAGTAAGC	-0.0584
CCGAGGTC	0.424
ATCCTTAA	-0.184
GGAGTCTA	-0.0987
GATATAAC	0.0636
GTGGGGGA	-0.251
CTTCCCAA	-0.191
CGATTGGC	-0.0806
ATCACCCG	0.369
CTCCAGCC	-0.162
CTCGTCCC	-0.0171
ATTATTTG	-0.21
ACCTTTCG	0.116
GTCTCTGA	-0.115
CGCTTTAA	-0.114
AATGTCAC	-0.0192
ATTCTGTC	-0.078

Sequence	PBM E-score
ACATAGCT	-0.17
TTGACCAA	-0.141
ACATGGCC	0.0167
ACAACCTA	-0.112
CGTAACAA	0.0686
ACGAGTCG	-0.101
CGAAGGAG	0.039
ATAAACTA	-0.139
ACGTCCGC	0.132
ACTCGAAA	-0.137
TACATCTA	-0.15
GAGAGACC	-0.122
ACAACCGT	-0.115
CGACGTTA	0.088
ACTACGGC	-0.0239
CAAGCGGC	0.0985
GACGCGGC	0.0303
ACTTGACA	-0.05
CTCTTTAC	-0.0924
GTTGTCAA	-0.107
GCACATGA	-0.117
CCCGGTCA	0.131
GGAATACC	0.214
AGAAAACC	-0.00717
GCTATTAA	-0.108

Sequence	PBM E-score
TCACTTAA	-0.0915
AAGCCCCT	0.0485
ATATTGAC	0.0712
GTAATACA	-0.0668
ACCATTAG	-0.021
CTGTTCTC	-0.0405
CGACAAAG	0.126
AAGTTTTC	0.0553
ATTCCTGC	0.0722
CGCGAACC	0.166
CAAATCTA	-0.211
CCCTCGGC	0.399
GAGTCTCC	0.0629
GCAAACAC	-0.151
GAACCCGA	0.338
CAGAACGC	-0.126
GCACTACC	-0.0127
AAAAGAAA	-0.0451
GCAATCCC	0.19
GAATGAAC	-0.0152
AGGTAACA	-0.199
ACAGTCGA	-0.284
AAGCAGCG	-0.0524
AGTTCTGA	-0.16
ATTCCGGG	0.353

Sequence	PBM E-score
AGGTAATC	-0.00217
CGCGTATC	0.0553
ATAAGACA	-0.0364
CAACTTCA	-0.205
TGGGAACA	0.00069
AAAGGGCA	-0.194
CTGCTTAC	-0.188
ACAACAGC	-0.0598
AGCCCACG	-0.0831
AAAGTCCT	0.0233
ACGCAAAG	-0.156
GTGTCTAA	-0.208
ACGACTTG	-0.168
GTCCTATA	-0.205
CATGAAGA	-0.172
AAGGGAGT	-0.138
CGACGATA	0.0643
AAATGCAA	-0.314
AACGTGGA	-0.218
AGACGAAG	-0.0901
CTTGAAAG	-0.157
CTATAGGC	-0.143
GCGCGAGC	-0.0587
CCACCGAG	0.207
ACTTGTAT	-0.1

Sequence	PBM E-score
GGGCAACC	-0.0889
ACACTATG	-0.102
AGCTCAAG	-0.271
ATCAATCC	0.067
CCGTCGAA	0.0663
ACGAGGTA	-0.0352
AAATATTA	-0.0429
CCCCATAG	-0.101
GTGGACAC	-0.228
CATATTTC	0.0406
CCGATTGC	0.275
CAACAATG	-0.138
CGTTCCCA	-0.102
ATAGTCCA	-0.103
AGCATCAG	-0.171
CTGAGTTC	-0.0388
GGGGTGAC	-0.0263
CTCACTCC	0.12
GCACGCGA	0.0721
CTAAGTCC	-0.18
CCGCAAAC	0.135
TACCCAAA	-0.0863

— the supplement of paper PMC3334620
